Read counts are not given, so values of variants with three or more changes are uncertain.
B1: OR4K15 (parent)
chain: GUUAACGGUCAUAGGCCAUGGAAACUAGGAGCACCAUUUCGCUGCCAGUGAAGAAAUGAACAAAGAAAAUCUGGGCCAGGCAGGCAUCAAAAGAAAUAGUCUUGCGCUCAACCAGAAAGUCUGUAAUCAUUUUAAGGGUA

Variants of: B1
Assay: self-cleavage, relative activity (ratio to wild type); higher = more cleavage; in vitro, sequencing; the parent is a self-cleaving ribozyme

Row | Variant | self-cleavage
1 | GUUAACGGCCAUAGGCCAUGGAAACUAGGAGCACCAUUUCGCUGCCAGUGAAGAAAUGAACAAAGAAGAUCUGGGCCUGGCAGGCAUCAAAAGAGAUAGUCUUGCGCUCAACCAGAAAGUCUGUAAUCAUUCUAAGGGUA [U9C A68G A78U A95G U132C] | 0.74
2 | GUUAACGGCCAUAGGCCAUGGAAACUAGGAGCACCAUUUCGCUGCCAGUGAAGAAAUGAACAGAGAAAAUCUGGGCCAGGCAGGCAUCAAAAGAAAUAGACUUGCGCUCAACCAGAAAGUCAGCAAUCAUUUUAAGGGUA [U9C A63G U100A U122A U124C] | 0.78
3 | GUUAACGGCCAUAGGCCAUGGAAACUAGGAGCACCAUUUCGCUGCCAGUGAAGAAAUGAACAAGGAAAAUCUGGGCCAGGCAGGCGUCAAAAGAAAUAGUCUUGCGCUCAACCAGAAAGUCUGUAAUCAUUUUAAGGGUA [U9C A64G A86G] | 1.09
4 | GUUAACGGCCAUAGGCCAUGGAAACUAGGAGCACCAUUUCGCUGCCAGUGAAGAAAUGAACAAGGAAAUUCUGGGCCAGGCAGGCAUCAAAAGAAAUAGUCUUGCGCUCAACCAGAGAGUCUGUAAUCAUUAUAAGGGUA [U9C A64G A69U A117G U132A] | 1.64
5 | GUUAACGGCCAUAGGCCAUGGAAACUAGGAGCACCAUUUCGCUGCCAGUGAAGAAAUGAGCGAAGAAAAUCUGGGCCAGGCAGGCAUCAAAAGAAAUAGUCUUGCGCUCAACCAGAAAGUCUGUAAUCAUUUUAAGGGUA [U9C A60G A62G] | 0.41
6 | GUUAACGGCCAUAGGCCAUGGAAACUAGGAGCACCAUUUCGCUGCCAGUGAAGAAAUGUGCAAAGAAAAUCUGGGCCAGGCAGGCAUCAAUAGAAAUAGUCUUGCGCUCAACCAGAAAGUCUGUAAUCAUUUUAAGGGUA [U9C A59U A60G A91U] | 0.93
7 | GUUAACGGCCAUAGGCCAUGGAAACUAGGAGCACCAUUUCGCUGCCAGUGAAGAAAUGAACAAGGAAAAUCUGGGCCAGGCAGGCAUCAAAAGGAAUAGUCUUGCGCUCAACCAGAAAGUCUGUAAUCUUUUUAAGGGUA [U9C A64G A94G A129U] | 0.75
8 | GUUAACGGCCAUAGGCCAUGGAAACUAGGAGCACCAUUUCGCUGCCAGUGAAGAAAUGAGCAAAGAAAAUCUGGGCCAGGCAGGCAUCAGAAGAAAUAGUCUUGCGCUCAACCAGAAAGUCUGUAAUCAUUUUAAGGGUA [U9C A60G A90G] | 0.78
9 | GUUAACGGCCAUAGGCCAUGGAAACUAGGAGCACCAUUUCGCUGCCAGUGAAGAAAUGAACAGAGAGAAUCUGGGCCAGGCAGGCAUCAAGAGAAAUAGUCUUGCGCUCAACCAGAAAGUCUGUAUUCAUUUUAAGGGUA [U9C A63G A67G A91G A126U] | 0.42
10 | GUUAACGGCCAUAGGCCAUGGAAACUAGGAGCACCAUUUCGCUGCCAGUGAAGAAAUGAACAAAGAAAAUCUGGGCCGGGCAGGCAUCAAAAGAAAUAGUCUUGCGCUCAACCAGAAAGUCUGUAAUCAUUCUAAGGGUA [U9C A78G U132C] | 0.21
11 | GUUAACGGCCAUAGGCCAUGGAAACUAGGAGCACCAUUUCGCUGCCAGUGAAGAAAUGAACAGGGAAAAUCUGGGCCAGGCAGGCAUCAAAAGAAAUAGUCUUGCGCUCAACCAGGAAGUCUGUAAUCAUUUUAAGGGUA [U9C A63G A64G A116G] | 1.42
12 | GUUAACGGCCAUAGGCCAUGGAAACUAGGAGCACCAUUUCGCUGCCAGUGAAGAAAUGUACACAGAAAAUCUGGGCCAGGCAGGCAUCAAAAGAAAUAGUCUUGCGCUCAACCAGAAAGUCUGUAAUCAUUUUAAGGGUA [U9C A59U A63C] | 2.14
13 | GUUAACGGCCAUAGGCCAUGGAAACUAGGAGCACCAUUUCGCUGCCAGUGAAGAAAUGAACGAAGAAAAUCUGGGCCAGGCAGGCAUCAAAAGAAAUAGACUUGCGCUCAGCCAGAAAGUCUGUAAUCAUUUUAAGGGUA [U9C A62G U100A A111G] | 0.04
14 | GUUAACGGCCAUAGGCCAUGGAAACUAGGAGCACCAUUUCGCUGCCAGUGAAGAAAUGAACAAAGAGAAUCUGGGCCAGGCAGGCAUCAUAGGAAAUAGUCUCGCGCUCAGCCAGAAAGUCUGUAAUCAUUUUAAGGGUA [U9C A67G A90U A92G U103C A111G] | 0.01
15 | GUUAACGGCCAUAGGCCAUGGAAACUAGGAGCACCAUUUCGCUGCCAGUGAAGAAAUGAACAAAGAAUAUCUGGGCCAGGCAGGCAUCAAAAGAAAUAGUCUUGCGCUCAACCAGAAAGUCUGUAAUCGUUCUGAGGGCA [U9C A68U A129G U132C A134G U139C] | 0
16 | GUUAACGGCCAUAGGCCAUGGAAACUAGGAGCACCAUUUCGCUGCCAGUGAAGAAAUGAACAAAGAACAUCUGGGCCAGGCAGGCGUCAAAAGAAAUAGUCUUGCGCCCAACCAGAAAGUCUGUAAUCAUUUUAAGGGUA [U9C A68C A86G U108C] | 0.01
17 | GUUAACGGCCAUAGGCCAUGGAAACUAGGAGCACCAUUUCGCUGCCAGUGAAGAAAUGAACAAAGAAAGUCUGGGCCAGGCAGGCAUCAAAAGAAACAGUCUUGCGCUCAACCAGAAAGUCUGUAAUCAUUUUAAGGGUA [U9C A69G U97C] | 1.1
18 | GUUAACGGCCAUAGGCCAUGGAAACUAGGAGCACCAUUUCGCUGCCAGUGAAGAUAUGAACAAAGAAAAUCUGGGCCAGGCAGGCACCAAAAGAAAUAGUCUUGCGCUCAACCAGAAAGUCUGUAAUCAUUUUAAGGGUA [U9C A55U U87C] | 2.71
19 | GUUAACGGCCAUAGGCCAUGGAAACUAGGAGCACCAUUUCGCUGCCAGUGAAGAAAUGGACAAAGAAAAUCUGGGCCAGGCAGGCAUCAAAAGAGAUAGUCUUGCGCUCGACCAGAAAGUCUGCAAUCAUUUUAAGGGUA [U9C A59G A95G A110G U124C] | 0.28
20 | GUUAACGGCCAUAGGCCAUGGAAACUAGGAGCACCAUUUCGCUGCCAGUGAAGAAAUGAACAAAGAAAGUCUGGGCCAGGCAGGCAUCAAAAGGAAUAGUCUUGCGCUCAACCAGAAAGUCUGUAAUCAUUUUAAGGGUA [U9C A69G A94G] | 0.91

Source: the RNAGym collection of RNA variant scans (doi:10.7554/elife.90254)
